Measured values: patent US20110251230A1, “THERAPEUTICS FOR NEUROLOGICAL DISORDERS” (UNIVERSITY OF SHEFFIELD, priority 2008, published 2011)
At least one read-out could not be matched to a standard name with certainty.

How the values were obtained:
C6 (rat) astrocytic line = test: C6 oxidative stress assay (serum withdrawal, DCF); conditions: C6, DCF fluorescence
[1] = tested on: NSC34 mouse motor neuronal cells; test: NSC34 oxidative stress assay (serum withdrawal, DCF); conditions: NSC34, DCF fluorescence; negative = pro-oxidant
[2] = tested on: 1321N1 (human) astrocytic line; test: 1321N1 oxidative stress assay (serum withdrawal, DCF); conditions: 1321N1, DCF fluorescence

Row | Structure (SMILES) | Maximal % reduction in Oxidative stress (C6 (rat) astrocytic line) | Maximal % reduction in Oxidative stress [1] | Maximal % reduction in Oxidative stress [2]
1 | COc1ccc(/C=C/C(=O)c2ccccc2)cc1 [4 methoxychalcone] | 82% | 24% | 30%
2 | ClC1=C(Cl)C2(Cl)C3C(Cl)C(Cl)CC3C1(Cl)C2(Cl)Cl (stereo not drawn) [Chlordane] | 20% | 0% | 68%
3 | CC1=C2C(=CO[C@H](C)[C@H]2C)C(O)=C(C(=O)O)C1=O [Citrinin] | 23% | 0% | 28%
4 | CC1(C)C(=O)C=C[C@]2(C)[C@H]3CC[C@@]4(C)[C@H](c5ccoc5)OC(=O)[C@H]5O[C@]54[C@]3(C)[C@H](O)C[C@@H]12 [Deacetylgedunin] | 70% | 0% | 28%
5 | CC(C)N(C(=O)CCl)c1ccccc1 [Propachlor] | 74% | 0% | 50%
6 | O=C1C=C2C=C[C@@H]3C[C@@]2(O1)[C@H]1CCCCN31 [Securinine] | 67% | 20% | 55%
7 | C=C(C)C(=O)C(=CC(=O)O)OC [penicillic acid] | 68% | 9% | 45%
